Results: PubChem BioAssay AID493131 (Broad Institute, 2011)
Hit rate of the full screen: of about 340,000 compounds, about 3,300 (0.97%) were called active. The shares of active, inactive and inconclusive entries below differ from those in the screen.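 The calls were made as follows: active = mean activation above about 17%, with every replicate also reaching it (limit read from the data, passing the limit was not always enough); inconclusive = only one of the two conditions met; inactive = the rest.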

Biological target: Protein FosB (Mus musculus) (UniProt P13346)
Sequence of UniProt P13346 (P13346 whole entry, looked up): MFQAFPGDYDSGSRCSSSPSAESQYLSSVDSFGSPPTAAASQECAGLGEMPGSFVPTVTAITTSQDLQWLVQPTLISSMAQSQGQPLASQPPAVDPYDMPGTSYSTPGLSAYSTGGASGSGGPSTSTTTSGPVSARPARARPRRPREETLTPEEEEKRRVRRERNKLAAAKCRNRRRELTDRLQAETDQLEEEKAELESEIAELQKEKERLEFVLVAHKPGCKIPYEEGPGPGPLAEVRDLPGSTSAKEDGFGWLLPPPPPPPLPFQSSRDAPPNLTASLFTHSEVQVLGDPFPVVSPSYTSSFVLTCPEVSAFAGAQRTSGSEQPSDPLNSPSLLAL
Test: enhancers of mouse delta FosB DNA binding – biochemical, fluorescence polarization, TAMRA-CDK5 oligo, single point, primary screen (AID 493131);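 also: fluorescence polarization rise as delta FosB binds a TAMRA Cdk5 AP-1 oligo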
Details: purified delta FosB, at 25 µM, active compounds read high, percent of positive-control signal above neutral wells

| Structure (SMILES) | activation |
| --- | --- |
| O=C(Cn1cnc2sc3c(c2c1=O)CCCC3)NCC(=O)Nc1c(F)cccc1F | active: 31.8% |
| O=C(c1ccco1)N1CCN(C(=O)c2cnn3c2NC(c2cccs2)CC3C(F)(F)F)CC1 (centres undefined) | inactive: -9.03% |
| COCc1cc(C)nc(SCC(=O)Nc2cccc3cccnc23)c1C#N | inconclusive: 17.8% |
| CN(C)CCN(C(=O)c1ccc(S(=O)(=O)N2CCc3ccccc32)cc1)c1nc2ccc(F)cc2s1 | active: 61.8% |
| O=C(CNC(=O)c1ccco1)OCc1ccc(C(=O)Oc2ccccc2)cc1 | inactive: -14% |
| Cc1cc(C)c(C#N)c(SCC(=O)Nc2nnc(-c3ccccc3)s2)n1 | active: 39% |
| CS(=O)(=O)c1ccc(Cl)c(NC(=O)COC(=O)c2ccc(-n3cnnn3)cc2)c1 | inconclusive: 16.7% |
| O=C(OCC(=O)N1CCOCC1)c1ccccc1SCC(=O)N1CCCC1 | inactive: 5.76% |
| Clc1cccc(/C=N\Nc2nccs2)c1 | inactive: -4.96% |
| CCc1nc(SCC(=O)Nc2cccc(C(F)(F)F)c2)c2c(=O)n(C)c(=O)n(C)c2n1 | inconclusive: 17.3% |
| CCOc1cc(/C=N/Nc2cc(C)nc(-n3nc(C)cc3C)n2)ccc1O | inconclusive: 18.8% |
| O=C(Nc1ccc(F)cc1)c1ccccc1Oc1ccc(C(F)(F)F)cc1[N+](=O)[O-] | inactive: -2.63% |
| O=C(N/N=C/c1ccco1)c1cc2ccccc2o1 | inactive: -8.88% |
| Cc1nn(-c2ccc(Cl)cc2)c2[nH]c(=O)c(CNCc3ccc4c(c3)OCO4)cc12 | inconclusive: 16.4% |
| CC1CC(C)CN(C(=O)c2ccc3c(=O)n(Cc4ccc5c(c4)OCO5)c(=S)[nH]c3c2)C1 (centres undefined) | inactive: -4.75% |
| COC(=O)c1c(NC(=O)CN2CCN(Cc3ccc4c(c3)OCO4)CC2)sc(C)c1C | inconclusive: 18.4% |
| Cc1cc(C)nc(NC(=O)CSc2nn(-c3ccccc3)c(=S)s2)n1 | inconclusive: 17.5% |
| COc1ccc(/C(C)=N/NC(=O)c2nnn(-c3nonc3N)c2-c2ccccc2)cc1 | active: 29.7% |
| NC1=NC2(CCC(c3ccccc3)CC2)n2c(nc3ccccc32)N1 (centres undefined) | active: 34.1% |
| CCCCn1c(N)c(N(CC(C)C)C(=O)C2CCN(S(=O)(=O)c3ccc(C)c(C)c3)CC2)c(=O)[nH]c1=O | inconclusive: 19.8% |
| Cc1c(Br)ccc(NC(=O)Cn2nc(-c3cccs3)ccc2=O)c1C | inconclusive: 17.2% |
| Nc1ccc2nc(-c3cccc(-c4nc5ccc(N)cc5[nH]4)n3)[nH]c2c1 | inconclusive: 17.5% |
| O=C(CCC(=O)Nc1ccc(F)cc1)N/N=C/c1cc([N+](=O)[O-])ccc1O | inconclusive: 20.2% |
| CC1=C(C(=O)Nc2ccccc2)C(c2ccco2)C(C#N)=C(SCC(N)=O)N1 (centres undefined) | inconclusive: 24.2% |
| CS(=O)(=O)c1ccc(Cl)c(NC(=O)COC(=O)c2ncc(Cl)c(Cl)c2Cl)c1 | inconclusive: 16.2% |
| COc1ccc(NC(=S)NCCN2CCOCC2)cc1 | inactive: 2.22% |
| NS(=O)(=O)c1ccc(CCN2C(=O)/C(=C\c3ccc(Cl)cc3)SC2=S)cc1 | inconclusive: 16.6% |

| Structure (SMILES) | activation |
| --- | --- |
| O=C1C[C@H](NC(=O)OCc2ccccc2)CO1 | inconclusive: 20% |
| N#Cc1cccc(NC(=O)CSc2nnc(-c3n[nH]c4ccccc34)o2)c1 | inconclusive: 24.5% |
| Cc1cccc(NC(=O)CCNC(=O)c2ccccc2)c1 | inactive: -3.07% |
| Cc1ccc(Nc2cc(C)nc(NCc3ccccc3)n2)cc1 | inconclusive: 21.9% |
| Nc1nc(CSC(=S)N2CCN(c3ccccc3)CC2)nc(Nc2ccccc2)n1 | inconclusive: 20.7% |
| CCOc1ccc(C(=O)Nc2cccc([N+](=O)[O-])c2)cc1Br | inactive: 10.4% |
| Cc1ccc(N2CC(C(=O)OCC(=O)Nc3cccc(Cl)c3C)CC2=O)cc1 (centres undefined) | inconclusive: 17.3% |
| O=C(CCn1c(=O)c2cccn2c2ccc(F)cc21)NCc1cccc(F)c1 | inconclusive: 19% |
| O=C(COc1ccccc1)Nc1nnc(C23CC4CC(CC(C4)C2)C3)s1 | inconclusive: 17.7% |
| COc1ccc(C(=O)Nc2cccc(C(=O)N/N=C/c3ccc(OC)cc3OC)c2)cc1 | inconclusive: 18.5% |
| CCN(CC(=O)Nc1c(F)cccc1F)C(=O)c1cccc(S(=O)(=O)N2CCc3ccccc3C2)c1 | inconclusive: 16% |
| O=C(Cn1ncc2c(=O)oc3ccccc3c21)NCCC1=CCCCC1 | inconclusive: 16.2% |
| CCN1CCN(Cc2ccc(NC(=O)c3ccc(C)c(NC(=O)c4nccn4C)c3)cc2C(F)(F)F)CC1 | inactive: -22.1% |
| CCc1ccc(-n2c(=O)c3ccc(C(=O)NCCc4ccccc4)cc3n(CC(N)=O)c2=O)cc1 | inconclusive: 17.6% |
| O=C(CSc1nnc(NC(=O)c2ccccc2[N+](=O)[O-])s1)NCC1CCCO1 (centres undefined) | inactive: -5.15% |
| C/C(=N/NC(=O)c1nnn(-c2nonc2N)c1COc1ccccc1)c1ccccc1Cl | inconclusive: 21% |
| C[C@]1(O)CC(=O)C=C[C@H]1Nc1ccccc1 | inactive: -2.42% |
| O=C1COc2ccc(C(=O)COC(=O)CCSc3ccc(Cl)cc3)cc2N1 | inconclusive: 16.1% |
| CN(C)c1nc(N/N=C\c2ccc(Cl)c([N+](=O)[O-])c2)nc(Nc2ccc(F)cc2)n1 | active: 118% |
| CCOC(=O)CSc1nnc(NC(=O)c2cccc([N+](=O)[O-])c2)s1 | inactive: 0.974% |
| C(=C\c1ccccc1)/C=N/Nc1nc2ccccc2[nH]1 | inconclusive: 16% |
| c1ccc(Nc2nc(NCc3ccco3)c3ccccc3n2)cc1 | inconclusive: 17.6% |
| Cc1ccsc1/C=N/NC(=O)c1ccc2ccccc2c1 | inconclusive: 23.9% |
| C=CCn1c(=NC(=O)c2ccc(S(=O)(=O)N3CCc4ccccc4C3)cc2)sc2cc(S(N)(=O)=O)ccc21 | inconclusive: 27.7% |
| CCCCc1nnc(NC(=O)c2ccc3[nH]c(=O)c(=O)[nH]c3c2)s1 | inconclusive: 16.3% |
| O=C(CCSCCC(=O)NN=Cc1ccccc1O)NN=Cc1ccccc1O | active: 35.6% |
| O=C(OCC#CCSc1nnc(-c2cccc3ccccc23)o1)c1ccc2ccccc2c1 | inactive: -6.21% |
